This is one part of the list. Sequences were assembled here from the parent chain. Inactive controls read about 0.05.
B1: TEV protease; numbered along this chain (parent)
chain: MGESLFKGPRDYNPISSSICHLTNESDGHTTSLYGIGFGPFIITNKHLFRRNNGTLVVQSLHGVFKVKDTTTLQQHLVDGRDMIIIRMPKDFPPFPQKLKFREPQREERICLVTTNFQTKSMSSMVSDTSCTFPSGDGIFWKHWIQTKDGQCGSPLVSTRDGFIVGIHSASNFTNTNNYFTSVPKNFMELLTNQEAQQWVSGWRLNADSVLWGGHKVFMVKPEEPFQPVKEATQL

Variants of: B1
Assay: raw area under fraction-flipped curve 0-4 h after induction (AUC4h, not background-subtracted), DNA-recorder readout of cleavage of the substrate (dimensionless); higher = more cleavage of the substrate by the protease variant
Conditions: temperature: 34 °C; time window: 0-4 h after rhamnose induction
Method: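 In vivo DNA recorder in E. coli TOP10(DE3) ΔrhaA at 34 °C. Each TEVp single-site mutant (parent TEVp 0) is paired with a single-site variant of the 7-mer TEVs (canonical ENLYFQ|S). The substrate sits between flexible linkers in a Bxb1-sfGFP-TEVs-SsrA fusion, so cleavage stabilises Bxb1 and speeds flipping of a recombination array, read by NGS. The value is the raw area under the fraction-flipped curve over 0-4 h after rhamnose induction (AUC4h), with ≥20 reads per time point. It is not background-subtracted; inactive controls average about 0.047.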
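Also: Bxb1 expression induced with 0.2% (w/v) L-rhamnose at OD600 near 0.5, cultures sampled hourly, flipped fraction per protease–substrate barcode pair counted by paired-end Illumina sequencing.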

Row | Variant | area with substrate ENLYDQS | area with substrate ENLYHQS | area with substrate ENLYIQS | area with substrate ENLYKQS | area with substrate ENLYMQS | area with substrate ENLYNQS | area with substrate ENLYRQS | area with substrate ENLYSQS | area with substrate ENLYVQS | area with substrate ENLYWQS | area with substrate ENLYEQS | area with substrate ENLYGQS | area with substrate ENLYPQS | area with substrate ENLYQQS | area with substrate ENLYLQS | area with substrate ENLYTQS | area with substrate ENLYYQS
1 | F117R | 0.0936 | 0.0738 | 0.126 | 0.0709 | 0.0829 | 0.0685 | 0.0688 | 0.0605 | 0.108 | 0.0924 |  |  |  |  |  |  | 
2 | P14N | 0.0612 | 0.0782 |  |  | 0.0719 | 0.0775 | 0.0654 | 0.0774 | 0.0995 |  | 0.0661 | 0.0667 | 0.0582 | 0.063 |  |  | 
3 | P40Y | 0.0643 | 0.0662 | 0.114 | 0.0907 | 0.0748 | 0.0709 | 0.0518 | 0.0592 | 0.156 | 0.0644 | 0.0622 | 0.0452 |  | 0.0592 | 0.0717 | 0.0811 | 0.0615
4 | I19S | 0.0527 | 0.0651 |  |  | 0.0692 | 0.0553 |  | 0.076 |  |  | 0.058 | 0.0659 |  |  |  | 0.0592 | 0.0521
5 | G39N | 0.035 | 0.0368 |  | 0.0427 | 0.0467 |  | 0.0297 |  | 0.0355 |  | 0.0448 | 0.0354 | 0.0376 |  |  |  | 
6 | R109E | 0.0536 | 0.0703 | 0.0902 | 0.0519 |  |  |  | 0.0906 | 0.0886 | 0.0567 | 0.05 |  | 0.0803 |  |  | 0.0733 | 
7 | S60P | 0.0491 | 0.0491 | 0.0446 | 0.0474 | 0.0406 | 0.0597 |  |  |  | 0.0681 | 0.055 | 0.0586 |  | 0.0181 |  |  | 0.0515
8 | S158A | 0.053 | 0.0559 | 0.108 |  | 0.126 | 0.0762 | 0.0636 |  |  | 0.0817 | 0.062 | 0.0594 | 0.0765 |  |  | 0.0877 | 
9 | S121G | 0.0623 | 0.075 |  | 0.0235 | 0.0891 | 0.077 | 0.0615 |  | 0.137 |  | 0.0856 | 0.0572 | 0.072 |  | 0.0896 |  | 
10 | G162A | 0.0577 | 0.0583 | 0.114 | 0.0786 | 0.0758 |  |  |  |  | 0.0667 | 0.0567 | 0.0697 | 0.0728 | 0.0739 |  |  | 
11 | L33W | 0.0625 | 0.052 |  | 0.0568 | 0.0583 | 0.0581 | 0.0623 | 0.0626 | 0.0565 | 0.0511 | 0.0594 | 0.0585 | 0.0559 | 0.0616 | 0.0624 | 0.0606 | 0.0498
12 | M122A | 0.0609 | 0.0467 | 0.13 | 0.0494 | 0.0865 | 0.0665 | 0.0508 | 0.0843 | 0.128 | 0.0764 |  | 0.0537 | 0.076 |  |  | 0.0842 | 0.0641
13 | Q194L | 0.0495 | 0.0664 | 0.117 | 0.0593 | 0.0766 | 0.0644 |  | 0.0797 |  | 0.0792 | 0.0257 | 0.089 | 0.0667 | 0.0628 | 0.0832 |  | 0.0659
14 | M83C | 0.0613 | 0.0686 | 0.085 | 0.0647 |  | 0.0604 | 0.0628 |  | 0.0732 |  | 0.0734 | 0.0505 | 0.0714 | 0.0611 |  |  | 
15 | F180W | 0.127 | 0.0564 |  | 0.0591 |  |  | 0.0583 | 0.0513 | 0.0858 |  | 0.0619 | 0.0586 | 0.0703 | 0.0551 |  |  | 
